Self-cleavage data for 84 variants are collected here from the RNAGym collection of RNA variant scans (doi:10.1093/nar/gkz1192).

B1: CPEB3 Ribozyme (parent)
chain: UAACAGGGGGCCACAGCAGAAGCGUUCACGUCGCAGCCCCUGUCAGAUUCUGGUGAAUCUGCGAAUUCUGCUGUAUAUCUC

The source gives no read counts; variants with many changes may rest on few reads.

Variants of B1 are the subject of this series. The series can be described thus: self-cleavage, relative activity (ratio to wild type); higher = more cleavage; in vitro, sequencing. An outline of the steps: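 Relative activity was defined as the cleaved/total read fraction for a variant divided by the same fraction for the unmutated ribozyme. CPEB3 self-cleaving ribozyme libraries were made by rounds of error-prone PCR, barcoded, and transcribed in vitro with T7 RNA polymerase for 5 hours at 37°C, and cleavage ran through transcription plus a 15 min DNase I step before EDTA. Illumina sequencing of template-switched reverse transcripts gave the reads, and DNA sequencing mapped the barcodes. Averages come from three batches, using variants with at least 5 reads.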
On to A15U A20U A45G A56G A57U, for which the self-cleavage is 0.06.
Then A15U A20G U51A A64G, with 0.15.
Take A15G U31C C32U A64C U67C: the self-cleavage amounted to 0.06.
Then A15G U31A U41G U60C U78C, with 0.12.
On to A15G U26C G30A A65G U69A, for which the self-cleavage was determined as 0.14.
In the case of A15U A18G U43C, the self-cleavage is 0.41.
Regarding A15G U41A U43C, the self-cleavage is 0.34.
Then A15G U54A A57U, with 0.35.
Then A15U A28G A45U, with 0.18; and A15G U60A U67C U72C, with 0.6.
Turning to A15G U26C C34U U66C, the self-cleavage was 0.06.
As to A15G U43C U66A U67C, the self-cleavage was 0.16.
To A15G U54G A56G C68A A75G belongs 0.1.
For the variant A15G U67C C81A, the self-cleavage turned out to be 0.3.
Take A15G U26C U41G A65G: the self-cleavage amounted to 0.09.
Take A15G U41G U54C A64U: the self-cleavage was determined as 0.06.
Then A15G U41G U43A, with 0.49; and A15G U26C A75U C81G, with 0.67.
On to A15G U60G C68A A77U U80C, for which the self-cleavage came out at 0.23.
As to A15G U43C G70C, the self-cleavage is 0.14.
Regarding A15G U26C U48C, the self-cleavage was found to be 0.3.
Take A15G U25C A45G U60C: the self-cleavage worked out at 0.1.
To A15G U48C U54A A64G A75U belongs 0.18; to A15G U41C A45C, 0.35.
To A15G U25C U67C A75G belongs 0.11; to A15G U41C A56U, 0.15.
In the case of A15G U25A U69C, the self-cleavage turned out to be 0.13.
As to A15G U51C U67A U69C, the self-cleavage was determined as 0.16.
To A15G U25C A28G A47G A57G U58C belongs 0.23; to A15G U41A U74C, 0.15; to A15G U41A U74A, 0.45.
To A15G U54A U66A belongs 0.43; to A15G U54A A64U, 0.32; to A15G U25C U26A U78C, 0.13.
To A15G U26C U54C U78C belongs 0.25.
As to A15G U41C U43A A64G U69C, the self-cleavage amounted to 0.1.
To A15U A20U U25A U54A A64G belongs 0.22.
Take A15G U41C A64G U78C: the self-cleavage was 0.46.
Turning to A15G U49C U51A G73C, the self-cleavage worked out at 0.67.
For the variant A15U A20U U26C C40A U41C U58C A75G, the self-cleavage was found to be 0.04.
Consider A15U A20U A64G U67G, for which the self-cleavage amounted to 0.12.
For the variant A15G U31A A75G, the self-cleavage is 0.77.
Then A15U A18U A47G U78C, with 0.1; and A15G U41C U58C U78A, with 0.24; and A15U A21G A35C U43C U48C C59A A75G, with 0.11.
Then A15G U26C U48C U54C U76A, with 0.28.
A15U A18G U58C A64G: the self-cleavage turned out to be 0.14.
Turning to A15U A18G U26C A28C U31C, the self-cleavage is 0.37.
Consider A15G U25C C38U A45G U51C C71A U72A, for which the self-cleavage is 0.07.
As to A15U A28U U51C G63U U69C U72A, the self-cleavage was 0.1.
Turning to A15G U31A U67A, the self-cleavage is 0.3.
To A15G U48C U78C belongs 0.47; to A15U A28U U49C U69C A75U U78C, 0.08; to A15U A21G U25C U26A U51C U69A, 0.18.
For the variant A15U A21G A28U A35U A45C G46A U72A, the self-cleavage worked out at 0.05.
As to A15U A21G C34U A35G U54C, the self-cleavage is 0.16.
In the case of A15G U49C U58C U78A, the self-cleavage worked out at 0.06.
To A15G U31C U72C belongs 0.23; to A15G U43C C44U U69C, 0.08; to A15G U26A C34A U78C, 0.07.
A15U A28G U60C: the self-cleavage amounted to 0.2.
As for A15G U31A C39U U49G G53C, the self-cleavage was determined as 0.07.
To A15G U26A U43C belongs 0.39; to A15U A18U U26C A65G U67C, 0.08; to A15U A18G U54C G61C U72C, 0.18.
With A15U A20G A21G, the self-cleavage was 0.07.
As to A15U A18U U26A C44A U51A A64G U78G, the self-cleavage came out at 0.
Then A15G U31C U41C U78C, with 0.29; and A15G U26A U66G, with 0.19.
In the case of A15G U25C U54C G55U U72A, the self-cleavage is 0.07.
A15U A18G A45G: the self-cleavage stood at 0.08.
Then A15G U25C U26A U72C, with 0.06.
Turning to A15U A20G C29G, the self-cleavage was determined as 0.45.
In the case of A15U A18U U43C A64G, the self-cleavage was determined as 0.18.
To A15G U41C A45C U54A U80C belongs 0.51; to A15U A28G U69A, 0.36.
As for A15G U25C A45G U78C, the self-cleavage was 0.
To A15G U54C U72A belongs 0.44.
In the case of A15G U54C U72C, the self-cleavage amounted to 1.29.
To A15G U25A C29U belongs 0.25; to A15G U41C G55A U66A, 0.2; to A15G U25A U67A, 0.2.
Take A15G U26A U31C U48C: the self-cleavage came to 0.08.
To A15U A20G G73U belongs 1.11.
